Measurements taken from paper PMC12487865.
Results are given in words; binding and its absence hold for the method and conditions named. In cells and extracts the contact can be indirect. Some results given as binding are weak or reduced against the parent protein; the word gives no strength. For part of these data: Tags and fused reporters may be left off the sequences shown. Each block holds one molecule with its values, some of them ahead of it.

The chains behind the UniProt entries cited, without tags or fusion partners. Residues count along the entry.
UniProt P16092, residues 22-822: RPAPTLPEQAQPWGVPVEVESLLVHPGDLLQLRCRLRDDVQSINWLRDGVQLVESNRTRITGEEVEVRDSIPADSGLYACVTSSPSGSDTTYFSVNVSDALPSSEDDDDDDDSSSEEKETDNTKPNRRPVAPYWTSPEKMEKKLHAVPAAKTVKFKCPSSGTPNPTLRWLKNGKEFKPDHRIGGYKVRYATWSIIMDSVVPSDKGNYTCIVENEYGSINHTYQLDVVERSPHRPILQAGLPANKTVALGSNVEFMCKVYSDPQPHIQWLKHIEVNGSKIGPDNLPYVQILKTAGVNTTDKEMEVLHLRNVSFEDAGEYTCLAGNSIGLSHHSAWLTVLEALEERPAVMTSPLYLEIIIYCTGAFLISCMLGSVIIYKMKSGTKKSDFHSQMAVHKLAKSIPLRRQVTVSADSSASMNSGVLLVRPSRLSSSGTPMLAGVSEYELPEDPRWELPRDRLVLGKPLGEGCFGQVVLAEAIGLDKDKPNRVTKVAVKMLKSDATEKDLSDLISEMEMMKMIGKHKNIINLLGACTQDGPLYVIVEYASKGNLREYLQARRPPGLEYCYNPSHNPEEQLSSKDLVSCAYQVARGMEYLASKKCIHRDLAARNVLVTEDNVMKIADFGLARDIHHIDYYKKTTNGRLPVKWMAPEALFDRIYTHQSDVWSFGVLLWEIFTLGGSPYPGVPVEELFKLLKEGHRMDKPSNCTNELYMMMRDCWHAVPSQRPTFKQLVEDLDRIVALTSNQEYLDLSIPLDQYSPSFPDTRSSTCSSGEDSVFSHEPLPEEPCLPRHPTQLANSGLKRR
UniProt P21803, residues 22-821: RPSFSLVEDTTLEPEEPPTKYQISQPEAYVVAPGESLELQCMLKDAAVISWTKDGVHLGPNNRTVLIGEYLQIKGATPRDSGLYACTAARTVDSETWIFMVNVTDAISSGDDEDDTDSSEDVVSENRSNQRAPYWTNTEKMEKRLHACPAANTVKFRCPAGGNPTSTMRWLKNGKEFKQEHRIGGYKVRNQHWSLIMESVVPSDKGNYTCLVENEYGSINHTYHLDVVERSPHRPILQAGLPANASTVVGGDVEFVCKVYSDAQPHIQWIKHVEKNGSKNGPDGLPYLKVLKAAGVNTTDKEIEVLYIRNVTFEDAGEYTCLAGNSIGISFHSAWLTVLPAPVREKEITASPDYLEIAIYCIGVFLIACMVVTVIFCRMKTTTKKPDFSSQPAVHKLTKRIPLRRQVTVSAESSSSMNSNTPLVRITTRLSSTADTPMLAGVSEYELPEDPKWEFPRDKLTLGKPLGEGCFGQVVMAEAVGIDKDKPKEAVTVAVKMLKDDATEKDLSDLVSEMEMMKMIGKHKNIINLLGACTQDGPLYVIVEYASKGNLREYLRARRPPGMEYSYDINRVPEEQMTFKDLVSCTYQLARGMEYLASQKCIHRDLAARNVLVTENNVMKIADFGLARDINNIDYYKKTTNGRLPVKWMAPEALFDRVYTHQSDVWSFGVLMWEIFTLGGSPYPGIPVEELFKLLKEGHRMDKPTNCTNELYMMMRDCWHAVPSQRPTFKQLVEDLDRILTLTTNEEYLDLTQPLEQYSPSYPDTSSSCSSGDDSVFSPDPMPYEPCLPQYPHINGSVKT
UniProt Q61851, residues 21-801: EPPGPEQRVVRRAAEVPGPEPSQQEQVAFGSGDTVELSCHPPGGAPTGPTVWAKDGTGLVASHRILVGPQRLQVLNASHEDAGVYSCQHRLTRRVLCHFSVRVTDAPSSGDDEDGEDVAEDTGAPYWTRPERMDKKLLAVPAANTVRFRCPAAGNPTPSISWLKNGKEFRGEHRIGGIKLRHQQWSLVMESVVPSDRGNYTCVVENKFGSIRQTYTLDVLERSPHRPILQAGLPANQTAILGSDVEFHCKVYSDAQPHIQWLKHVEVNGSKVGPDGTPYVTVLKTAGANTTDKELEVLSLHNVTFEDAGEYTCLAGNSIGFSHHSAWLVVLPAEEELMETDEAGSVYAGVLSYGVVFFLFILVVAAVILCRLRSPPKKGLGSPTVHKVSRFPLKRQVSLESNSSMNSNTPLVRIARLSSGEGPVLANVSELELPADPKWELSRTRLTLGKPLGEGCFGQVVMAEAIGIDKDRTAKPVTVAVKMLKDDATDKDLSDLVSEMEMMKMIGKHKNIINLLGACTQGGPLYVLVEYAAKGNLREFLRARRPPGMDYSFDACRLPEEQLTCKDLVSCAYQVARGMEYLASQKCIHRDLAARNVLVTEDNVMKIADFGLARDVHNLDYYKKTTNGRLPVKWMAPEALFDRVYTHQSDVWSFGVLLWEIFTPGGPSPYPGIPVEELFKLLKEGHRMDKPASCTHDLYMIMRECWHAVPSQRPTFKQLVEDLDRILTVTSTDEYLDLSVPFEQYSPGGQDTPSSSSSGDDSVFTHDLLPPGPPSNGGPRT
UniProt P26618, residues 25-1089: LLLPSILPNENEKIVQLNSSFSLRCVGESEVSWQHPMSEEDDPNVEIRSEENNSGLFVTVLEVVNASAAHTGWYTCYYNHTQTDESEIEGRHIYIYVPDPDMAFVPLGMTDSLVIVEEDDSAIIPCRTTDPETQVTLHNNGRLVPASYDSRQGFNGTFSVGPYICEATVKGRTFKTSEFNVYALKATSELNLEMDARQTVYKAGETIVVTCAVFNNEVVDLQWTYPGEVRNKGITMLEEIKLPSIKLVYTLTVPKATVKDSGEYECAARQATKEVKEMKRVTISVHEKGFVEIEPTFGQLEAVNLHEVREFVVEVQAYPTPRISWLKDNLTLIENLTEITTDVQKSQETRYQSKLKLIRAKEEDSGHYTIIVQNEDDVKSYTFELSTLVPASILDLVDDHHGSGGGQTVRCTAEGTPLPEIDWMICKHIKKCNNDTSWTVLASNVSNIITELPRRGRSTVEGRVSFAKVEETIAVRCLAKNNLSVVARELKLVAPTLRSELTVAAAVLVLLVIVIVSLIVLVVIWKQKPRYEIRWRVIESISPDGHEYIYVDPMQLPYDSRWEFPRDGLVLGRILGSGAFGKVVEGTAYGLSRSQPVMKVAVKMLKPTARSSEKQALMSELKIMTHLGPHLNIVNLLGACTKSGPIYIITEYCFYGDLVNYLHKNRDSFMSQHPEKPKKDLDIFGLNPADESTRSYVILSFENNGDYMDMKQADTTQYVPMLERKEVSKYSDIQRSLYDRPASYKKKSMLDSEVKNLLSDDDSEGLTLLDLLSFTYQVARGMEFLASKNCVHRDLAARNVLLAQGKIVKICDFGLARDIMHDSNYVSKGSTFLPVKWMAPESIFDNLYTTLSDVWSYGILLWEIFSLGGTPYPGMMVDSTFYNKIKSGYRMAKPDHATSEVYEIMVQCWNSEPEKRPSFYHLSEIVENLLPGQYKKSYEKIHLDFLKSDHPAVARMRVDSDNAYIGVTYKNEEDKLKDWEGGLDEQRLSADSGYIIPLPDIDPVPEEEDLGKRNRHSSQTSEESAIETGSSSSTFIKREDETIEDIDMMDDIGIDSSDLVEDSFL
UniProt P05622, residues 32-1098: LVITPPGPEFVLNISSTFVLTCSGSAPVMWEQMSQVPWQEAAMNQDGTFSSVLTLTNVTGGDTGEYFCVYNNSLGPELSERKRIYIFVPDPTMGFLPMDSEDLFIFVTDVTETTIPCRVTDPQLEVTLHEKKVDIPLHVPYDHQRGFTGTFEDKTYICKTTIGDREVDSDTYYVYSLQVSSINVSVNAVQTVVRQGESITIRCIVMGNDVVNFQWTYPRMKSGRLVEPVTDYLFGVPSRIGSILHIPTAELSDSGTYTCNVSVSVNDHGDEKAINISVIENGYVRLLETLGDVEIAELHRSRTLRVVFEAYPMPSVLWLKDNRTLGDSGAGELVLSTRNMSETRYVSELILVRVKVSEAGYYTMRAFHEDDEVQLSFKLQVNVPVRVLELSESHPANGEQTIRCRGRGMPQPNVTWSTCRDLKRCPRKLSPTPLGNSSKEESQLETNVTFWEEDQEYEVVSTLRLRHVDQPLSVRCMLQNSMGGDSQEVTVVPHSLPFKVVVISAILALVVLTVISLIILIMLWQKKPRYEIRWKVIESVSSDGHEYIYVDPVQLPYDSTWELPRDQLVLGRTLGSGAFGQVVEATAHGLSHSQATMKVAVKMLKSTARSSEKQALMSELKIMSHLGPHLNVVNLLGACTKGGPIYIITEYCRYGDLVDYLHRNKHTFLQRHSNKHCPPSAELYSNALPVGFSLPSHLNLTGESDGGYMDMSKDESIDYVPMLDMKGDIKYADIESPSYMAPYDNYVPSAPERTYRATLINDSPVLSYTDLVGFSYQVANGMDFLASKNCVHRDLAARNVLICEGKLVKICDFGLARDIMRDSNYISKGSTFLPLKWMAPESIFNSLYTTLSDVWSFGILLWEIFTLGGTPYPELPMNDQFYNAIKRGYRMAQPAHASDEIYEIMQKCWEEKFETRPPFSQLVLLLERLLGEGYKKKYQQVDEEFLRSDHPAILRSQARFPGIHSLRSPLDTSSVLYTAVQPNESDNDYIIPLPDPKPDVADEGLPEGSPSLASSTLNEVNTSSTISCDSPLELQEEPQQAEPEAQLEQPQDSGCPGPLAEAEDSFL

Legend:
[1] = molecular target: T1, Nf2 (endogenous, primary CNC-derived osteoblasts) (mouse (endogenous in primary CNC-derived osteoblasts)) (UniProt P46662); test: co-IP; endogenous co-IP from lysate of primary CNC-derived osteoblasts; co-IP buffer (25 mM Tris, 150 mM NaCl, 1% NP-40, 1 mM EDTA, 5% glycerol, pH 7.4); antibody overnight at 4°C, Dynabeads, Western blot
T1 sequence: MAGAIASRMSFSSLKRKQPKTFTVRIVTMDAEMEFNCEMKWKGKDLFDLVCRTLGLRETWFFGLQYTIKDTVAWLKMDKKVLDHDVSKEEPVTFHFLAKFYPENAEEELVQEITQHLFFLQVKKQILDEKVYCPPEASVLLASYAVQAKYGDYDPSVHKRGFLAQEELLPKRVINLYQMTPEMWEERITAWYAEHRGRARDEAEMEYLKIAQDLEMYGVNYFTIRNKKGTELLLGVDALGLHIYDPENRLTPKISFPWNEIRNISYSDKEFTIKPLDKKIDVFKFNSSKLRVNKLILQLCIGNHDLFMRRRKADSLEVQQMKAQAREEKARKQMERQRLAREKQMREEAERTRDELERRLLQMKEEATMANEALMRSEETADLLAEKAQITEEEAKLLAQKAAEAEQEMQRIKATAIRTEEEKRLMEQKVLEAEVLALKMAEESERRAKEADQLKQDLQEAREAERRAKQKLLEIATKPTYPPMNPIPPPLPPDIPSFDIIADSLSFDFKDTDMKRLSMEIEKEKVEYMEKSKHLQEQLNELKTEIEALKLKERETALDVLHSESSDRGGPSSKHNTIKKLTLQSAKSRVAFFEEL

[2] = molecular target: T2, Nf2-Flag (neurofibromin 2, Merlin) (UniProt P46662); test: co-IP; co-IP of FGFR1, Akt and Nf2 together (FGFR1 and Akt tested in the presence of Nf2); cells and constructs not told in the text (Supplemental Figure 3C)
T2 sequence: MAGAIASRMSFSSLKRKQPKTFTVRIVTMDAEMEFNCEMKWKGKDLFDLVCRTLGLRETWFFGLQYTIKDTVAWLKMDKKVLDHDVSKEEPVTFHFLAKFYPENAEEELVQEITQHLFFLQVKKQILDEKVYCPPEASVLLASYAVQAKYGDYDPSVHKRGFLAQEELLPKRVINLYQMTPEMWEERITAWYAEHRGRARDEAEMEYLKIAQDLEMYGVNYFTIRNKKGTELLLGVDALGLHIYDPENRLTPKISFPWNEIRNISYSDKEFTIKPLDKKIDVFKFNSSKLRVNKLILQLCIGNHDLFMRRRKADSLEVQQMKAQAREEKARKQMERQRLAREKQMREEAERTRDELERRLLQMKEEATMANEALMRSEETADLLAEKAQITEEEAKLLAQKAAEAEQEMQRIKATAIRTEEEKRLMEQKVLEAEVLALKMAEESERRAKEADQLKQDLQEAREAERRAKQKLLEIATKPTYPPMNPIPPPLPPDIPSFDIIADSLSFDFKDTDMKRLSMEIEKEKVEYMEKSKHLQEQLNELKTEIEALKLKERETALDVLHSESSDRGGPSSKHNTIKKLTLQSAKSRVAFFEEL

[3] = molecular target: T3, Nf2 T230A-Flag (UniProt P46662); test: co-IP; HEK293T cells transfected with tagged plasmids (Flag, HA); lysate in co-IP buffer (25 mM Tris, 150 mM NaCl, 1% NP-40, 1 mM EDTA, 5% glycerol, pH 7.4); co-IP antibody or normal IgG overnight at 4°C, Dynabeads, Western blot
T3 sequence: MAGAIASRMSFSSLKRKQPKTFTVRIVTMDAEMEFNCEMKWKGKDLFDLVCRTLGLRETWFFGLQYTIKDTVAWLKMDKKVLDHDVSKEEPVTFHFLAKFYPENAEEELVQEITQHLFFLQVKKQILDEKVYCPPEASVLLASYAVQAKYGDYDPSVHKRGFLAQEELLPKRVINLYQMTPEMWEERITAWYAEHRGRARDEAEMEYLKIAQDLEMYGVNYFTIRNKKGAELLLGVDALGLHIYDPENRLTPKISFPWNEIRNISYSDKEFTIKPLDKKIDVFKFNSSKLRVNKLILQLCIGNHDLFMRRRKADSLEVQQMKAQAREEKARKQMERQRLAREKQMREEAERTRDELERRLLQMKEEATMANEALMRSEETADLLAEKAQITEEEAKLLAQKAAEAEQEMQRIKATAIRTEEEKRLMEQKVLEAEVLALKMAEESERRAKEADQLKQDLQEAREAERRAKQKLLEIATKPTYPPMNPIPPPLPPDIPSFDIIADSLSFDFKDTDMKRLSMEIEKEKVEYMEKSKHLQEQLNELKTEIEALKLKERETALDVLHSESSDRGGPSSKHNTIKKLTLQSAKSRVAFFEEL

[4] = molecular target: T2, Nf2-Flag (neurofibromin 2, Merlin); test: as above
[5] = molecular target: T4, Nf2 S10A-Flag (UniProt P46662); test: as above
T4 sequence: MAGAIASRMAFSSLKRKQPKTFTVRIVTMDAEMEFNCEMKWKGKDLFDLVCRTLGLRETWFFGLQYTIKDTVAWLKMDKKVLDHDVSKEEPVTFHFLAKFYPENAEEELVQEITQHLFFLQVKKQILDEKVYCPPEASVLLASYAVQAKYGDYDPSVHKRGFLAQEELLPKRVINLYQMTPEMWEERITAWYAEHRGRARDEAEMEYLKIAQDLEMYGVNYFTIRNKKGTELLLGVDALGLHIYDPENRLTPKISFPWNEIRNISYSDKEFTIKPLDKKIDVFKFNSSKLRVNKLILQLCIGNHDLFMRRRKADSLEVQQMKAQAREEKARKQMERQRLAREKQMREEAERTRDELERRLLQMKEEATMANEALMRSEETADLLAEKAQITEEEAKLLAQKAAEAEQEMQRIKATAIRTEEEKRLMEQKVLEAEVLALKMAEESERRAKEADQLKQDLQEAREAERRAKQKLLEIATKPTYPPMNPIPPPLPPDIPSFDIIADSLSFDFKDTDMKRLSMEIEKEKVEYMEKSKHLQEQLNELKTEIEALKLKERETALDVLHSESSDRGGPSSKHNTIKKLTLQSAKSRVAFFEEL

[6] = molecular target: T5, Nf2 S315A-Flag (UniProt P46662); test: as above
T5 sequence: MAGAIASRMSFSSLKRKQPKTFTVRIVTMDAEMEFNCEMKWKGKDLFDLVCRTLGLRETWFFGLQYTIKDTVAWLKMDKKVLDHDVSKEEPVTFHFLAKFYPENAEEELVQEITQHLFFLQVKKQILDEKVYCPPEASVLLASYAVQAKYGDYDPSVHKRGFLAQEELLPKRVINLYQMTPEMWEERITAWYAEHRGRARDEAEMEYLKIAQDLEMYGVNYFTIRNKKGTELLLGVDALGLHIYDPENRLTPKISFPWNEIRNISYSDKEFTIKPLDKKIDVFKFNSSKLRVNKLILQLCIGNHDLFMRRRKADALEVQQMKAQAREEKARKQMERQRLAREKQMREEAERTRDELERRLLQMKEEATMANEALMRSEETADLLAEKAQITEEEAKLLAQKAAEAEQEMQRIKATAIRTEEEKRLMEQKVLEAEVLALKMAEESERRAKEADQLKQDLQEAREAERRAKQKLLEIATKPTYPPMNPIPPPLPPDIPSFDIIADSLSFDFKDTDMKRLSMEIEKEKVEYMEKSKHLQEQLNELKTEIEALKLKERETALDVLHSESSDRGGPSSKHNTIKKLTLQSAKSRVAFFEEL

[7] = molecular target: T6, Nf2 S518A-Flag (UniProt P46662); test: as above
T6 sequence: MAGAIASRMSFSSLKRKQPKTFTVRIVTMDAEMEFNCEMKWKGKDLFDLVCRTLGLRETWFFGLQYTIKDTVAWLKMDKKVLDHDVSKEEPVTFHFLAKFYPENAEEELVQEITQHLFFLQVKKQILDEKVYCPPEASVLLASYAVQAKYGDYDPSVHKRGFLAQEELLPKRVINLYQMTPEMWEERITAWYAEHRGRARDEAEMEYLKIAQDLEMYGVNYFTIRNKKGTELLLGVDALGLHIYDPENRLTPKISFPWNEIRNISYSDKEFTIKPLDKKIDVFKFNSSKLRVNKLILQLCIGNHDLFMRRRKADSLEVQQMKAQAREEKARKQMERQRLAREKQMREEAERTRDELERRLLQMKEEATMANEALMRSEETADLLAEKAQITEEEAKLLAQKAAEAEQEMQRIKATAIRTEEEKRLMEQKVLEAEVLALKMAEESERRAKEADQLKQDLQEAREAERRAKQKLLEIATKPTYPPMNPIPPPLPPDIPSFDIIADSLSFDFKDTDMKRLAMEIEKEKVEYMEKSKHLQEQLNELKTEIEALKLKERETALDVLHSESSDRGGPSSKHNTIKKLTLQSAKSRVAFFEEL

[8] = molecular target: T7, Nf2-Flag (neurofibromin 2, Merlin), P46662; test: as above; conditions: remark: other sources report otherwise
T7 chain: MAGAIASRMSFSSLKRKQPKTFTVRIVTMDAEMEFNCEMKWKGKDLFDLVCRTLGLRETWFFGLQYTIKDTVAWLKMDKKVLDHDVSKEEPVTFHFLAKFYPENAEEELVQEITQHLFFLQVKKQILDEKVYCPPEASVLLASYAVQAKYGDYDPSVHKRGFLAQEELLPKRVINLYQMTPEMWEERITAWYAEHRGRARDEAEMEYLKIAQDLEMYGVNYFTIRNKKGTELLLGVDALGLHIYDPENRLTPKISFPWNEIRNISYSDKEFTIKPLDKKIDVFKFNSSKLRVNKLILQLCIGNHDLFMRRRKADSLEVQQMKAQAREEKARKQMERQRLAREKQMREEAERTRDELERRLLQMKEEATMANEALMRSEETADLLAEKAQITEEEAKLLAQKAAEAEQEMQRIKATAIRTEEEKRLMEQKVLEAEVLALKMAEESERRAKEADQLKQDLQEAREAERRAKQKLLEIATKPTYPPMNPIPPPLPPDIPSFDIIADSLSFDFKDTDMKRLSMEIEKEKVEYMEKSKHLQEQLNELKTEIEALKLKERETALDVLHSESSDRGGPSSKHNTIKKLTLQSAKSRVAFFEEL

Molecule: FGFR1 (endogenous, primary CNC-derived osteoblasts) (from UniProt P16092 22-822) (receptor)
binding [1]: binds

Molecule: FGFR1-HA (FGF receptor 1) (from UniProt P16092 22-822)
binding [2]: binds
binding [3]: binds
binding [4]: binds
binding [5]: binds
binding [6]: no binding
binding [7]: no binding

Molecule: FGFR2 (from UniProt P21803 22-821) (receptor)
binding [4]: no binding

Molecule: FGFR3 (from UniProt Q61851 21-801) (receptor)
binding [4]: no binding

Molecule: PDGFRα (from UniProt P26618 25-1089) (receptor)
binding [4]: no binding

Next, values leading:

binding [4]: no binding
Molecule: PDGFRβ (from UniProt P05622 32-1098) (receptor)

binding [8]: no binding
B1: FGFR4, Q03142 17-799 (receptor)
chain: LSLEASEEMEQEPCLAPILEQQEQVLTVALGQPVRLCCGRTERGRHWYKEGSRLASAGRVRGWRGRLEIASFLPEDAGRYLCLARGSMTVVHNLTLLMDDSLTSISNDEDPKTLSSSSSGHVYPQQAPYWTHPQRMEKKLHAVPAGNTVKFRCPAAGNPMPTIHWLKDGQAFHGENRIGGIRLRHQHWSLVMESVVPSDRGTYTCLVENSLGSIRYSYLLDVLERSPHRPILQAGLPANTTAVVGSDVELLCKVYSDAQPHIQWLKHVVINGSSFGADGFPYVQVLKTTDINSSEVEVLYLRNVSAEDAGEYTCLAGNSIGLSYQSAWLTVLPEEDLTWTTATPEARYTDIILYVSGSLVLLVLLLLAGVYHRQVIRGHYSRQPVTIQKLSRFPLARQFSLESRSSGKSSLSLVRGVRLSSSGPPLLTGLVNLDLPLDPLWEFPRDRLVLGKPLGEGCFGQVVRAEAFGMDPSRPDQTSTVAVKMLKDNASDKDLADLVSEMEVMKLIGRHKNIINLLGVCTQEGPLYVIVECAAKGNLREFLRARRPPGPDLSPDGPRSSEGPLSFPALVSCAYQVARGMQYLESRKCIHRDLAARNVLVTEDDVMKIADFGLARGVHHIDYYKKTSNGRLPVKWMAPEALFDRVYTHQSDVWSFEILLWEIFTLGGSPYPGIPVEELFSLLREGHRMERPPNCPSELYGLMRECWHAAPSQRPTFKQLVEALDKVLLAVSEEYLDLRLTFGPFSPSNGDASSTCSSSDSVFSHDPLPLEPSPFPFSDSQTT
